The values that follow come from paper doi:10.1101/822957 (bioRxiv, 2019).

The target of the assay is NTSR1 (1-418, wild type)-TEV site-tTA (human, UniProt P30989). Briefly: Tango assay.
Chain of UniProt P30989 (P30989 whole entry): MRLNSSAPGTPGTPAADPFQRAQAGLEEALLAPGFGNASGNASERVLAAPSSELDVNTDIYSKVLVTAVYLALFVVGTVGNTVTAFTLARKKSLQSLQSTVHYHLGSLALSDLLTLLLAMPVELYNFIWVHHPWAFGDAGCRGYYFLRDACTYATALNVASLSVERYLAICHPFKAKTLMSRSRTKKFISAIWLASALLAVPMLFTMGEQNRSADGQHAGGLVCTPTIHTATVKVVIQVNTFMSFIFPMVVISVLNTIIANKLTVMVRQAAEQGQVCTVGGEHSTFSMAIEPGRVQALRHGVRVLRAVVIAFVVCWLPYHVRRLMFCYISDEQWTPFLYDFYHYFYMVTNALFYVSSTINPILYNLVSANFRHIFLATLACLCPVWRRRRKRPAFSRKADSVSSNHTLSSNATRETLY

B1: Arr2 ([…], wild type)-TEV protease (natural protein)
chain: not shown
In the case of B1, the “fold increase of binding activity with ML314 (against no agonist)” value is roughly 3 fold; the “fold increase of binding activity with NTS (against no agonist)” value is roughly 2 fold; the “fold increase of binding activity with NTS and ML314 (against no agonist)” value was roughly 4 fold.
